Source: article PMC4336329 (PLoS ONE, 2015)
The whole screen tested about 310,000 compounds, of which about 14,000 (4.5%) showed an effect of 50% or more. Effects have a minus sign here. The list shows a part of the results.
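Also: peak tail current of the secondary pulse compared with the same well before compound.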

Each compound was assayed against human ether-à-go-go-related gene (hERG) potassium channel (human, UniProt Q12809) (assay: primary screen, population patch clamp on CHO cells stably expressing hERG).
Chain of human ether-à-go-go-related gene (hERG) potassium channel (Q12809 whole entry, looked up): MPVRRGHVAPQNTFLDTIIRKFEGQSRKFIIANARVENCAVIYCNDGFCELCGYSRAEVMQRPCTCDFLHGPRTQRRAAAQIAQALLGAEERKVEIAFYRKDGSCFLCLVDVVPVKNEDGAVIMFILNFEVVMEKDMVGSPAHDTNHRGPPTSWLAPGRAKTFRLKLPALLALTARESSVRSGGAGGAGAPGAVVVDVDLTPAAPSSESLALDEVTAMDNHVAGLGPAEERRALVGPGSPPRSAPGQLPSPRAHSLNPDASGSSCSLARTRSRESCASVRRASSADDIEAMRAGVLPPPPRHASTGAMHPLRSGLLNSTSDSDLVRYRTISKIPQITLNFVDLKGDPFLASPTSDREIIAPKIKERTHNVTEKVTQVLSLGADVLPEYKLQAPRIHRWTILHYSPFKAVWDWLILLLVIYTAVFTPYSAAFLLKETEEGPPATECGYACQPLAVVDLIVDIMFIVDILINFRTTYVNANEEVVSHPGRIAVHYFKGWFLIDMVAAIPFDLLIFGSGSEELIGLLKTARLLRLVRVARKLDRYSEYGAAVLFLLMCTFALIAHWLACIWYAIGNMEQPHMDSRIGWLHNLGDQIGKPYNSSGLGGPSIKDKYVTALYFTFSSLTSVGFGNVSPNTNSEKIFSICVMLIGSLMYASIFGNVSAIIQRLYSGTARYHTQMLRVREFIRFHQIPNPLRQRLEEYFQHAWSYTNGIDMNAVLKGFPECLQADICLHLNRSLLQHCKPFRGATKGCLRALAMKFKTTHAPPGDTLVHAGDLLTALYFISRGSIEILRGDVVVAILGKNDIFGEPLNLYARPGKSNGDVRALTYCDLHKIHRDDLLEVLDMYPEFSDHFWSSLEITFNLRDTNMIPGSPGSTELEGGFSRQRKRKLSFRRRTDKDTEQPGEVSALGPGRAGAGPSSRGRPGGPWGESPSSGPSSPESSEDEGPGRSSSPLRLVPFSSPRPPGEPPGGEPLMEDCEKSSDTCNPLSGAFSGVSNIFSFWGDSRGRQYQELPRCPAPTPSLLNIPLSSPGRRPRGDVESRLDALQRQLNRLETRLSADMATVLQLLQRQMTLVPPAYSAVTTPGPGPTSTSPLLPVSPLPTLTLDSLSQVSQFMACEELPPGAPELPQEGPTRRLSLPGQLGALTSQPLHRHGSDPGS
For [N-]=[N+]=NC[C@H](Cc1ccccc1)N1CCN(Cc2ccccc2)CCC1=O, the “hERG current change (%, negative = inhibition) at 10uM” value was 3.9%.
In the case of CC(C)C1Nc2ccc(C(=O)O)cc2C2C=CCC21 (centres unmarked), the “hERG current change (%, negative = inhibition) at 10uM” value is reported as 24.6%.
For O=C(CCN1C(=O)c2ccccc2C1=O)Nc1ccc(-c2cn3ccsc3n2)cc1, the “hERG current change (%, negative = inhibition) at 10uM” value was 16.4%.
Nc1c(C(=O)NCc2ccc3c(c2)OCO3)nnn1Cc1ccc(Br)cc1 was tested, and the “hERG current change (%, negative = inhibition) at 10uM” value was -5.41%.
In the case of O=C1NN=C(c2ccccc2)CC1c1c[nH]c2ccccc12 (centres unmarked), the “hERG current change (%, negative = inhibition) at 10uM” value is reported as -7.51%.
For Cc1nnc(N2CCOCC2)c2nn(-c3ccccc3)c(C)c12, the “hERG current change (%, negative = inhibition) at 10uM” value was -32.8%.
In the case of Cn1c(N)c(C(=O)COC(=O)CCC2CCCC2)c(=O)n(C)c1=O, the “hERG current change (%, negative = inhibition) at 10uM” value is reported as -43.3%.
In the case of Cc1ccc(-n2ncc3c(=O)[nH]c(SC(C)C)nc32)cc1, the “hERG current change (%, negative = inhibition) at 10uM” value is reported as -11.2%.
For CCOC(=O)c1nc(NCc2ccccc2C)c2ccccc2n1, the “hERG current change (%, negative = inhibition) at 10uM” value was -0.424%.
For Nc1cc(N2CCCCC2)c(Cl)cc1[N+](=O)[O-], the “hERG current change (%, negative = inhibition) at 10uM” value was -10.8%.
CCOc1ccccc1CNC(=O)CN1C(=O)CSc2ccc(S(=O)(=O)N3CCOCC3)cc21 was tested, and the “hERG current change (%, negative = inhibition) at 10uM” value was -11.4%.
With COc1ccc(-n2c(Cc3cccn3C)nnc2SCC(=O)Nc2ccccc2C)cc1 the “hERG current change (%, negative = inhibition) at 10uM” value was -36.5%.
In the case of CCC(=O)NNc1nc2c(C)cc(C)cc2s1, the “hERG current change (%, negative = inhibition) at 10uM” value is reported as 16.2%.
O=C(O)c1cccc2c(/C=N/Nc3ccccn3)c[nH]c12 was tested, and the “hERG current change (%, negative = inhibition) at 10uM” value was -1.13%.
For COc1cccc(CNC(=O)c2ccc(NC(=O)CC3SC(N4CCCCC4)=NC3=O)cc2)c1 (centres unmarked), the “hERG current change (%, negative = inhibition) at 10uM” value was -4.39%.
For CC1CN(C(=O)CSc2nnc(-c3ccncc3)n2-c2ccccc2)CC(C)O1 (centres unmarked), the “hERG current change (%, negative = inhibition) at 10uM” value was 2.88%.
In the case of CCN(CC)c1ccc(N)cc1S(=O)(=O)Nc1ccc(OC)cc1, the “hERG current change (%, negative = inhibition) at 10uM” value is reported as -4.91%.
For CCOC(=O)C(=O)Nc1nccs1, the “hERG current change (%, negative = inhibition) at 10uM” value was 0.744%.
Cc1onc(-c2ccc(Cl)cc2Cl)c1-c1csc(N/N=C/c2ccccc2)n1 was tested, and the “hERG current change (%, negative = inhibition) at 10uM” value was 12.4%.
In the case of O=C(COc1coc(CN2CCN(c3ccccc3)CC2)cc1=O)Nc1cccc(F)c1, the “hERG current change (%, negative = inhibition) at 10uM” value is reported as 13.7%.
CCN(CC)Cc1c(C(=O)N/N=C/c2ccncc2)nnn1-c1nonc1N was tested, and the “hERG current change (%, negative = inhibition) at 10uM” value was -55.9%.
With Cn1nccc1C(=O)Oc1cccc(/C=N/NC(=O)c2ccccc2O)c1 the “hERG current change (%, negative = inhibition) at 10uM” value was 3.3%.
In the case of CC(=O)N1c2ccc(S(=O)(=O)N3CCCCC3)cc2CC1C(=O)Nc1ccccc1C(F)(F)F (centres unmarked), the “hERG current change (%, negative = inhibition) at 10uM” value is reported as -16.8%.
In the case of CCCn1c(=O)c(-c2nc3ccccc3[nH]2)c(O)c2ccccc21, the “hERG current change (%, negative = inhibition) at 10uM” value is reported as 2.18%.
With Cc1cc(C(=O)OCC(=O)Nc2ccccc2)c(C)o1 the “hERG current change (%, negative = inhibition) at 10uM” value was 0.903%.
With CCOC(=O)/C(C#N)=C/C1=C(N2CCOCC2)C(C)(C)OCC1 the “hERG current change (%, negative = inhibition) at 10uM” value was 7.58%.
With CCC(=O)N1CCc2cc(Br)cc(S(=O)(=O)N(C)c3ccc(OC)cc3)c21 the “hERG current change (%, negative = inhibition) at 10uM” value was -23.5%.
With O=C(OCc1c(-c2ccccc2)ncc2ccccc12)N1CCOCC1 the “hERG current change (%, negative = inhibition) at 10uM” value was -7.16%.
For Cc1ccc([N+](=O)[O-])cc1S(=O)(=O)NCCc1c(C)[nH]c2ccccc12, the “hERG current change (%, negative = inhibition) at 10uM” value was -10.4%.
CCCOc1ccc(C(=O)NNC(=S)NC(=O)c2cc(-c3ccccc3)nc3ccccc23)cc1 was tested, and the “hERG current change (%, negative = inhibition) at 10uM” value was 15.2%.
In the case of O=C(N/N=C/c1ccccc1O)C1CC(=O)N(c2ccc(Cl)cc2)C1 (centres unmarked), the “hERG current change (%, negative = inhibition) at 10uM” value is reported as 8.21%.
With CC(=O)c1cccc(NC(=O)N2CCC(c3ccc(C)cc3)C2)c1 (centres unmarked) the “hERG current change (%, negative = inhibition) at 10uM” value was -13.8%.
In the case of COc1ccc2[nH]c(C(=O)N3CCC(n4nccc4NC(=O)C4CC4)CC3)c(C)c2c1, the “hERG current change (%, negative = inhibition) at 10uM” value is reported as -30.4%.
COC(=O)C(O)(CC(=O)Nc1cc(Cl)ccc1Cl)C(F)(F)F (centres unmarked) was tested, and the “hERG current change (%, negative = inhibition) at 10uM” value was -0.106%.
COc1ccc(S(=O)(=O)N2CCOCC2)cc1NC(=O)c1cc(C)oc1C was tested, and the “hERG current change (%, negative = inhibition) at 10uM” value was -17.4%.
With O=C(c1cc2ccccc2o1)N(C1CC1)C1(C(=O)Nc2ccccc2)CCCC1 the “hERG current change (%, negative = inhibition) at 10uM” value was 2.52%.
In the case of Cc1ccc(N=C2C(=O)Nc3ccccc32)cc1, the “hERG current change (%, negative = inhibition) at 10uM” value is reported as -1.19%.
Cc1ccc(Cl)c2c1=NC(=O)C=2c1[nH]c(=S)[nH]c1O was tested, and the “hERG current change (%, negative = inhibition) at 10uM” value was 9.74%.
With O=C(NC(=S)NCc1cccnc1)c1ccccc1F the “hERG current change (%, negative = inhibition) at 10uM” value was 13.2%.
In the case of Cc1ccc(S(=O)(=O)Oc2ccc(/C=C(/NC(=O)c3ccccc3)C(=O)NCC(=O)O)cc2)cc1, the “hERG current change (%, negative = inhibition) at 10uM” value is reported as 16.7%.
For Cc1ccc(-c2noc(CCCC(=O)N3CCOCC3)n2)cc1, the “hERG current change (%, negative = inhibition) at 10uM” value was -8.5%.
For Cc1cccc(C(=O)NCC(=O)OCC(=O)c2cc(C)n(CC3CCCO3)c2C)c1 (centres unmarked), the “hERG current change (%, negative = inhibition) at 10uM” value was -12.1%.
Cc1ccc(C)c(N=Cc2ccc(-c3ccc([N+](=O)[O-])cc3)o2)c1 was tested, and the “hERG current change (%, negative = inhibition) at 10uM” value was 14%.
For O=C(O)c1ccc(/C=N/Nc2cccc(C(F)(F)F)c2)cc1, the “hERG current change (%, negative = inhibition) at 10uM” value was 52.8%.
With CSc1ccc(CCNC(=O)CCc2nnc3ccc(N4CCOCC4)nn23)cc1 the “hERG current change (%, negative = inhibition) at 10uM” value was -8.52%.
In the case of CN(C)S(=O)(=O)c1cccc(NC(=O)COC(=O)c2ccc([N+](=O)[O-])o2)c1, the “hERG current change (%, negative = inhibition) at 10uM” value is reported as -19%.
COc1ccc(-c2csc(-c3cccs3)n2)cc1OC was tested, and the “hERG current change (%, negative = inhibition) at 10uM” value was 4.69%.
In the case of COc1cccc(NC(=O)c2cc(=O)c3ccccc3o2)c1, the “hERG current change (%, negative = inhibition) at 10uM” value is reported as 8.64%.
With COc1ccc2c(c1)CCc1c(C(=O)Nc3c(C)nn(Cc4ccccc4)c3C)noc1-2 the “hERG current change (%, negative = inhibition) at 10uM” value was 12.6%.
CCCCN(C/C=C/c1ccccc1OC)Cc1ccccc1 was tested, and the “hERG current change (%, negative = inhibition) at 10uM” value was 3.47%.
In the case of COc1ccc(C2C3=C(CC(C)(C)CC3=O)N(C)C3=C2C(=O)CC(C)(C)C3)cc1, the “hERG current change (%, negative = inhibition) at 10uM” value is reported as 6.47%.
Cc1ccc(-c2csc3ncnc(-n4nc(C)cc4N)c23)cc1 was tested, and the “hERG current change (%, negative = inhibition) at 10uM” value was -3.89%.
C=CCN(CC=C)C(=S)Nc1ccccc1 was tested, and the “hERG current change (%, negative = inhibition) at 10uM” value was 17%.
With COc1ccc(Br)cc1CNC(=O)CCc1nc(-c2ccc(C)cc2)no1 the “hERG current change (%, negative = inhibition) at 10uM” value was 18.7%.
In the case of CC(NC(=O)C1CCN(S(=O)(=O)c2cccc3nonc23)CC1)c1ccccc1 (centres unmarked), the “hERG current change (%, negative = inhibition) at 10uM” value is reported as 10.1%.
CN(CC(=O)Nc1ccc(N2CCOCC2)cc1)CC(=O)Nc1ccc(C(F)(F)F)cc1 was tested, and the “hERG current change (%, negative = inhibition) at 10uM” value was -20.4%.
For Cc1c(C(=O)NCCCN2CCOCC2)sc2nc(-c3ccc(F)cc3)cn12, the “hERG current change (%, negative = inhibition) at 10uM” value was -60.9%.
In the case of CCC(C(=O)NCCc1ccccc1)c1ccccc1 (centres unmarked), the “hERG current change (%, negative = inhibition) at 10uM” value is reported as 8.57%.
With Cc1cccc(N2C(=O)N3[C@@H]4c5ccccc5OC[C@@H]4[C@@H](c4ccccc4)[C@]3(C)C2=O)c1 the “hERG current change (%, negative = inhibition) at 10uM” value was 2.47%.
For O=C(/C=C\c1cccs1)N1CCN(Cc2ccc3c(c2)OCO3)CC1, the “hERG current change (%, negative = inhibition) at 10uM” value was -57.8%.
In the case of COc1ccc(OC)c(S(=O)(=O)NC(C)c2ccc(-n3ccnc3)cc2)c1 (centres unmarked), the “hERG current change (%, negative = inhibition) at 10uM” value is reported as -25.1%.
In the case of Cc1ccc(-c2n[nH]c(=S)n2-c2ccccc2)cc1, the “hERG current change (%, negative = inhibition) at 10uM” value is reported as 11.8%.
In the case of O=[N+]([O-])c1cc(S(=O)(=O)N2CCCCC2)ccc1NCc1cccc(Cl)c1, the “hERG current change (%, negative = inhibition) at 10uM” value is reported as 0.487%.
With Cc1nc2cc(NC(=O)NCCCO)ccc2o1 the “hERG current change (%, negative = inhibition) at 10uM” value was 15.1%.
In the case of CCCOc1ccc(C(CC(=O)O)NC(=O)CC(c2ccccc2)c2ccccc2)cc1 (centres unmarked), the “hERG current change (%, negative = inhibition) at 10uM” value is reported as 4.16%.
